The source of these data is patent publication US20240376128A1, “N-CYCLOPROPYLPYRIDO [4, 3-D] PYRIMIDIN-4-AMINE DERIVATIVES AND USES THEREOF” (Jacobio Pharmaceuticals Co., Ltd., priority 2021, published 2024).

Test [1] relates to AGS cell line (K-Ras G12D). The test is described as follows: Phospho-ERK1/2(THR202/TYR204) HTRF assay. In kind it is cell-based. As to conditions: Homo sapiens; AGS cells (K-Ras G12D), 2 hours incubation; read-out: p-ERK, IC50(nM) AGS. (In general: TR-FRET usually uses a lanthanide donor and a delayed reading to cut background.)
For test [2], the system named is NCI-H358 cell line (K-Ras G12C). The test is described as follows: Phospho-ERK1/2(THR202/TYR204) HTRF assay. In kind it is cell-based. Particulars: Homo sapiens; NCI-H358 cells (K-Ras G12C), 2 hours incubation; read-out: p-ERK, IC50(nM) NCI-H358.
Test [3] concerns RERF-LC-Ad1 cell line (K-Ras G12A). The test is described as follows: Phospho-ERK1/2(THR202/TYR204) HTRF assay. In kind it is cell-based. Particulars: RERF-LC-Ad1 cells (K-Ras G12A), 2 hours incubation; read-out: p-ERK, IC50(nM) RERF-LC-Ad1.
The test system of test [4] is TCC-PAN2 cell line (K-Ras G12R). The test is described as follows: Phospho-ERK1/2(THR202/TYR204) HTRF assay. Type of test: cell-based. As to conditions: TCC-PAN2 cells (K-Ras G12R), 2 hours incubation; read-out: p-ERK, IC50(nM) TCC-PAN2.
The test system of test [5] is NCI-H460 cell line (K-Ras Q61H). The test is described as follows: Phospho-ERK1/2(THR202/TYR204) HTRF assay. As to conditions: Homo sapiens; NCI-H460 cells (K-Ras Q61H), 2 hours incubation; read-out: p-ERK, IC50(nM) NCI-H460. In kind it is cell-based.
Test [6] deals with K-Ras mutant and K-Ras WT cell lines indicated in Table 20. The test is described as follows: 2D cell growth inhibition assay (CellTiter-Glo, 6 days). In kind it is cell-based. As for the experimental part:
Each of cells in culture medium was plated in TC-treated 96-well plates at a density indicated in Table 20 and incubated in a cell incubator overnight.
In general terms: In ATP-based viability assays light output follows the ATP content of the culture.

For test [7] the test system is unchanged. The test is described as follows: 3D cell growth inhibition assay (CellTiter-Glo 3D, 6 days). Type of test: cell-based. As to conditions: 144 h.
In test [8] the target is T1, K-Ras G12R (Homo sapiens, UniProt P01116, G12R). The test is described as follows: SOS1 catalyzed nucleotide exchange assay (GDP form K-Ras), TR-FRET. As to conditions: read-out: Biochemical assays, IC50, K-Ras G12R GDP. The method, then:
(§1) The parameters were F486: Excitation 340 nm, Emission 486 nm, Lag time 100 pas, Integration time 200 pas; F515: Excitation 340 nm, Emission 515 nm, Lag time 100 pas, Integration time 200 pas. TR-FRET ratios for each individual wells were calculated by equation: TR-FRET ratio=(Signal F515/Signal F486)*10000.

The target of test [9] is T2, K-Ras Q61H (Homo sapiens, UniProt P01116, Q61H). The test is described as above. Particulars: read-out: Biochemical assays, IC50, K-Ras Q61H GDP. The method, then:
as §1

Test [10] concerns the target K-Ras G12A (Homo sapiens, UniProt P01116, G12A). The test is described as follows: GTP-K-Ras (GppNp-K-Ras) and cRAF interaction assay, HTRF. As to conditions: read-out: Biochemical assays, IC50, K-Ras G12A GppNp. From the text:
(§2) GppNp is an analog of GTP.

Test [11] concerns the target T1, K-Ras G12R. Described as above. As to conditions: read-out: Biochemical assays, IC50, K-Ras G12R GppNp.
Source text: as §2

Test [12] has as its target T2, K-Ras Q61H. Described as above. Particulars: read-out: Biochemical assays, IC50, K-Ras Q61H GppNp.
Source text: as §2

Setting [13] is: 144 h, AGS (K-Ras G12D), absolute IC50, read-out: Cell Growth Inhibition, IC50, AGS.
Setting [14] is: Homo sapiens, ASPC1, 144 h, AsPC-1 (K-Ras G12D), absolute IC50, read-out: Cell Growth Inhibition, IC50, AsPC-1.
Where [15] appears, read: Homo sapiens, SW-620, 144 h, SW620 (K-Ras G12V), absolute IC50, read-out: Cell Growth Inhibition, IC50, SW620.
The mark [16] stands for this setting: TCC-PAN2 (K-Ras G12R), absolute IC50, read-out: Cell Growth Inhibition, IC50, TCC-PAN2.
Setting [17] is: Homo sapiens, MKN-1 (K-Ras WT), absolute IC50, read-out: Cell Growth Inhibition, IC50, MKN-1.
Where [18] appears, read: Homo sapiens, NCI-H358 (K-Ras G12C), absolute IC50, read-out: Cell Growth Inhibition, IC50, NCI-H358.
[19] abbreviates: Homo sapiens, NCI-H460 (K-Ras Q61H), absolute IC50, read-out: Cell Growth Inhibition, IC50, NCI-H460.

For orientation: IC50 means the midpoint of a concentration-inhibition curve. As to `C#Cc1c(F)ccc2cc(O)cc(-c3ncc4c(N(CC)[C@@H]5C[C@H]5F)nc(OC[C@@]56CCCN5C[C@H](F)C6)nc4c3F)c12.O=C(O)C(F)(F)F` (mixture of isomers) [Compound 6, 4-(4-(ethyl(trans-2-fluorocyclopropyl)amino)-8-fluoro-2-(((2R,7aS)-2-fluorotetrahydro-1H-pyrrolizin-7a(5H)-yl)methoxy)pyrido[4,3-d]pyrimidin-7-yl)-5-ethynyl-6-fluoronaphthalen-2-ol 2,2,2-trifluoroacetic acid], the IC50 in test [1] came out at 4.81 nM; in test [2], 75.1 nM; in test [3] it was 3.7 nM; in test [4], 278 nM; in test [5], 51.2 nM; in test [6] (setting [13]), 17.7 nM. In addition, the IC50 in test [6] (setting [14]) was 53.5 nM; in test [6] (setting [15]) it was 21.2 nM; in test [7] (setting [16]), > 1000 nM; in test [7] (setting [17]), 52.3 nM; in test [7] (setting [18]), 14.5 nM; in [7] (setting [19]), 382 nM.
Consider `C=Cc1c(F)ccc2cc(O)cc(-c3ncc4c(N(C)[C@@H]5C[C@H]5F)nc(OC[C@@]56CCCN5C[C@H](F)C6)nc4c3F)c12.O=C(O)C(F)(F)F` (mixture of isomers) [Compound 16, 6-fluoro-4-(8-fluoro-4-((trans-2-fluorocyclopropyl)(methyl)amino)-2-(((2R,7aS)-2-fluorotetrahydro-1H-pyrrolizin-7a(5H)-yl)methoxy)pyrido[4,3-d]pyrimidin-7-yl)-5-vinylnaphthalen-2-ol 2,2,2-trifluoroacetic acid], for which the IC50 in test [1] was 28.1 nM; in test [2], 60.1 nM; in test [4], ~1000 nM; in test [5], 82.7 nM; in [6] (setting [13]), 22 nM; in [6] (setting [14]), 142 nM. Also, the IC50 in test [6] (setting [15]) was 14.4 nM; in test [7] (setting [16]), > 1000 nM; in test [7] (setting [17]), 75.3 nM; in test [7] (setting [18]), 187 nM; in test [7] (setting [19]), 402 nM.
With `C#Cc1c(F)ccc2cc(O)cc(-c3ncc4c(N(C)C5CC5)nc(OC[C@@]56CCCN5C[C@H](F)C6)nc4c3F)c12` [Compound 1, 4-(4-(cyclopropyl(methyl)amino)-8-fluoro-2-(((2R,7aS)-2-fluorotetrahydro-1H-pyrrolizin-7a(5H)-yl)methoxy)pyrido[4,3-d]pyrimidin-7-yl)-5-ethynyl-6-fluoronaphthalen-2-ol], the IC50 in test [8] worked out at 2.93 nM; in test [9], 3.93 nM; in test [10], 421 nM; in test [11], 86.4 nM; in test [12] it was 144 nM; in test [1] it was 23.8 nM. Moreover, the IC50 in test [2] is 8.93 nM; in test [3], 8.32 nM; in test [4], 760 nM; in [5] it was 63.6 nM; in test [6] (setting [13]), 38.8 nM; in [6] (setting [14]) it was 751 nM. The IC50 in test [6] (setting [15]) was 19.5 nM; in test [7] (setting [16]), > 1000 nM; in [7] (setting [17]) it was 61 nM; in test [7] (setting [18]) it was 227 nM; in [7] (setting [19]), ~1000 nM.
`C#Cc1c(F)ccc2cc(O)cc(-c3ncc4c(N(C)[C@H]5C[C@@H]5F)nc(OC[C@@]56CCCN5C[C@H](F)C6)nc4c3F)c12` [Compound 3A, 5-ethynyl-6-fluoro-4-(8-fluoro-4-(((1S,2S)-2-fluorocyclopropyl)(methyl)amino)-2-(((2R,7aS)-2-fluorotetrahydro-1H-pyrrolizin-7a(5H)-yl)methoxy)pyrido[4,3-d]pyrimidin-7-yl)naphthalen-2-ol]: the IC50 in test [1] worked out at 4.09 nM; in test [2], 3.49 nM; in test [3] it was 4.05 nM; in test [4] it was 201 nM; in test [5], 10.3 nM; in test [6] (setting [13]) it was 4.99 nM. For the same molecule, the IC50 is 61.3 nM in test [6] (setting [14]); 2.28 nM in test [6] (setting [15]); 602 nM in test [7] (setting [16]); 15.4 nM in test [7] (setting [17]); 46.6 nM in test [7] (setting [18]); 141 nM in test [7] (setting [19]).
